This experiment relates to NCI-H322M lung. As to the kind of experiment: NCI anticancer screen, dose series, 48 h.

Structures are written as SMILES.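 Test compounds were applied to cells in 96-well plates for 48 hours at 5 doses. GI50 = concentration required for 50% inhibition of growth. TGI: total growth inhibition.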

`O=C(N/N=C/c1ccc(B(O)O)s1)c1[nH]c2ccc(Br)cc2c1-c1ccccc1`: the GI50 is 0.613 µM and the TGI was 17.8 µM.

As for `Cn1cc(-c2cc3nc(-c4cn(C)c5ncc(Br)cc45)cc(N)n3n2)c2cc(Cl)ccc21`, the GI50 was 1.66 µM and the TGI came out at 4.2 µM.

As to `N#C/C(=C\c1ccc(N(c2ccccc2)c2ccccc2)cc1)C(N)=O`, the GI50 was > 100 µM and the TGI is > 100 µM.
